Assay [1] concerns the target 细胞表面4-1BB抗原 (human 4-1BB on CHO-K1-Hu4-1BB stable cells; CD137 on lymphocytes) (human). As to the kind of experiment: flow cytometry on CHO-K1-Hu4-1BB cells. For orientation: A flow cytometer gives signals particle by particle.
Assay [2] has as its target T1, HER2抗原 (human HER2/ErbB2 in lysate of T6-17 cells, coated on ELISA plate) (human, UniProt P04626).
T1 construct: The antigen is a crude detergent lysate of cells with high membrane expression of human HER2, not a purified protein
As to the kind of experiment: ELISA on coated T6-17 cell lysate.

For assay [3], the target named is T2, 细胞表面HER2抗原 (HER2 on SKOV3, N87, MCF-7/HER2, MCF-7, JIMT-1, AC16 cells) (human, UniProt P04626).
T2 construct: whole, on cells
Nature of the assay: flow cytometry on N87 cells.

The target of assay [4] is T2, 细胞表面HER2抗原 (HER2 on SKOV3, N87, …). As to the kind of experiment: flow cytometry on MCF-7/HER2 cells.
Assay [5] has the same target. Nature of the assay: flow cytometry on JIMT-1 cells.
Assay [6] shares this target. As to the kind of experiment: flow cytometry on SKOV3 cells.

For orientation: EC50 means the concentration at which the effect is half-maximal.

B1: 抗人HER2/4-1BB双特异性抗体 HK006A1 (bispecific antibody, human IgG4 S228P, F234A L235A)
chain: [in this place about 120 residues]GGGGSGGGGSGGGGSDIQMTQSPSSLSASVGDRVTITCRASQDVNTAVAWYQQKPGKAPKLLIYSASFLYSGVPSRFSGSRSGTDFTLTISSLQPEDFATYYCQQHYTTPPTFGGGTKLTVLG[in this place human IgG4 Fc with S228P F234A L235A (EU numbers)]GGGGSGGGGSGGGGSQVQLQESGPGLVKPSETLSITCTVSGSSLTSYGVHWVRQPPGKGLEGLGVIWPGGSTNYNSALMSRLTISKDNSKSQVSLKMSSLTAADTAMYYCARVTGTWYFDVWGQGTTVTVSSGGGGSGGGGSGGGGSDIQMTQSPSSLSASLGDRVTISCSASQGISNYLNWYQQKPDGTVKLLIYYTSTLHSGVPSRFSGSGSGTDFTLTISSLQPEDVATYYCQQYSKLPWTFGGGTKLEIK
notes: Homodimer of two identical chains joined by disulfide bonds between hinge cysteines; Expressed in HEK293F cells, purified by Protein A and size exclusion; also called 靶向HER2-CD137双特异性抗体
As to B1, the 50% effective concentration (EC50) in assay [1] came out at 5.46 µg/mL; in assay [2] it was 0.131 µg/mL; in assay [3], 6.16 µg/mL; in assay [4], 5.63 µg/mL; in assay [5] it was 3.34 µg/mL; in assay [6], 3.87 µg/mL.
